Reference: PubChem BioAssay AID493208 (National Center for Advancing Translational Sciences (NCATS), 2011)
Hit rate of the full screen: of about 44,000 compounds, about 340 (0.77%) were called active. Not shown: some 5% with an inconclusive outcome. The call rests on the fitted dose curve; in most records, active means well fitted inhibition curve with a large enough effect; inconclusive means small, poorly fitted or top-dose-only effect; inactive means flat fitted curve, though single readings scatter. The list shows a part of the results.

Assay: Acumen qHTS Assay for Inhibitors of the mTORC1 Signaling Pathway in MEF (Tsc2-/-, p53-/-) Cells: Sytravon;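 further: plate controls were DMSO for no effect and rapamycin for full effect; nearly all actives have a fitted effect of over 50% in size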
Conditions: phospho-rpS6 immunofluorescence/PI, 24 h; series mostly up to 38.3 µM; activity change, negative = inhibition: at the top concentration
Procedure, shortened: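 Plate MEFs (Tsc2-/-, p53-/-, empty vector) in DMEM/10% FBS; after 24 h add compound, incubate 24 h at 37 degree Celsius; fix in PFA/TX-100, block, stain phospho-rpS6 and 10 uM PI; scan at 488 nm; report % positive cells.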

Structure (SMILES)	activity change, negative = inhibition
CCc1ccc(CNC(=O)C2COc3ccc(OC)cc3C2)cc1 (centres undefined)	inactive: -6.76%
CN(Cc1ccccc1)C(=O)CSc1nnc(-c2cccc(Cl)c2)o1	inactive: -4.5%
CCOC(=O)c1c(C)sc(-c2c(-c3ccccc3)[nH]c3[nH]c(=O)[nH]c(=O)c23)c1O	inactive: -19%
COc1ccc(-c2noc(-c3ccc(N4CCOCC4)c([N+](=O)[O-])c3)n2)cc1	inactive: -1.25%
CCc1ccc(S(=O)(=O)NCc2ccc3c(c2)CCN3C(=O)c2ccc(C)cc2)cc1	inactive: -1.32%
O=C(Cn1ncc2c(Cl)cccc21)NCc1cccc(Cl)c1	inactive: 1.41%
CCc1ccc(-n2nc(CO)c(C(=O)NCCOC)n2)cc1	inactive: -0.166%
COc1ccc(OC)c(S(=O)(=O)N2CCC(n3c(C)nc4cccnc43)CC2)c1	inactive: 0%
CN(C(=O)CC(=O)Nc1ccc2nc3n(c(=O)c2c1)CCCCC3)c1ccccc1F	inactive: 0.03%
Cc1ccc(CN(C(=O)COc2ccccc2Cl)c2ccccn2)o1	inactive: 0%
Cc1ccc(CNS(=O)(=O)c2ccc(C(=O)N(C)C)s2)cc1	inactive: 1.66%
CCOc1ccc(NC(=O)Cn2c(=O)n(Cc3ccc4c(c3)OCO4)c(=O)c3ccc(C(=O)NC4CCCCC4)cc32)cc1	inactive: -0.219%
CC(C)(C)C1CCc2c(sc(NC(=O)C3c4ccccc4Oc4ccccc43)c2C(N)=O)C1 (centres undefined)	inactive: -16.7%
CCn1cc(S(=O)(=O)c2cc(C)cc(C)c2)c(=O)c2cc(F)c(N3CCCCC3)cc21	inactive: 7.22%
COc1ccc(OC)c(CNC(=O)Nc2cn(CC(C)C)c(=O)c3ccccc23)c1	inactive: 0.561%
CCC(=O)N1c2ccc(S(=O)(=O)CCC(=O)NCc3ccccc3OC)cc2CC1C (centres undefined)	inactive: -0.832%
Cc1ccc(CNC(=O)Nc2cc(C(=O)NCc3cccc(F)c3)ccc2N2CCCC2)cc1	inactive: 11.4%
COC(=O)c1nnn(CC(=O)NC(=O)Nc2ccc(F)cc2)c1C(=O)OC	inactive: -9.65%
CC(=O)N1CCc2cc(Br)cc(S(=O)(=O)N3CCC(C(=O)Nc4cccc(C)c4C)CC3)c21	inactive: 6.97%
O=C(Nc1ccc(S(=O)(=O)N2CCC(c3nc4ccccc4s3)CC2)cc1)c1ccccc1	inactive: 5.36%

Structure (SMILES)	activity change, negative = inhibition
CCCCn1c(CNC(=O)C23CC4CC(CC(C4)C2)C3)nnc1SCC(=O)Nc1ccc(C)cc1	inactive: -13.6%
COCCSc1nc2c([nH]c3ccccc32)c(=O)n1-c1ccc(OC)c(OC)c1	inactive: -15.5%
CC1CCCCN1Cc1c(O)ccc2c(=O)c(-c3ccccc3Cl)c(C(F)(F)F)oc12 (centres undefined)	inactive: -14.4%
Cc1ccc(C2CC(=O)Nc3cc4c(cc32)OCCO4)cc1Br (centres undefined)	inactive: -6.05%
CCOc1ccc(CCNC(=O)c2cc(=O)[nH]c3ccc(S(=O)(=O)N4CCCCC4C)cc23)cc1OCC (centres undefined)	inactive: 6.43%
Fc1ccccc1-c1nc(N2CCN(c3cccc(Cl)c3)CC2)c2ccccc2n1	inactive: -8.11%
COCCNC(=O)Cn1ccc2cc(S(=O)(=O)N3CCCCCC3)ccc21	inactive: 0.0831%
Cc1ccc(-c2noc(CCC(=O)N(C)c3ccccc3F)n2)cc1	inactive: -10%
CCn1c(=O)c2c(nc3n2CCN3c2ccc(OC)cc2)n(C)c1=O	inactive: -4.41%
COc1ccc(CNC(=O)CCc2c(C)nc3c(c(C)nn3-c3ccccc3)c2C)cc1	inactive: -2.71%
CCOC(=O)c1c(C)n(-c2ccc(OC)cc2)c2ccc(OC(=O)COc3ccccc3)cc12	inactive: -6.98%
Cc1ccc(-n2ncc3c(Nc4cccc(Cl)c4)ncnc32)c(C)c1	inactive: -0.318%
O=C(Cn1nnnc1-c1ccccc1F)Nc1ccc(OC(F)(F)F)cc1	inactive: -1.73%
CCc1ccc(CNC(=O)CCc2c(C)nn(-c3ccc(N4CCCC4)nn3)c2C)cc1	inactive: -0.372%
COc1cc(NC(=O)C2=CC(c3ccc(F)cc3)=NS(=O)(=O)N2C)cc(OC)c1OC	inactive: 0.626%
CC(C)c1nnc(N2C(=O)c3oc4ccccc4c(=O)c3C2c2ccccc2F)s1 (centres undefined)	inactive: 1.03%
CCN(Cc1ccccc1)C(=O)C1CCN(S(=O)(=O)c2ccc3c(c2)CCCN3C(C)=O)CC1	inactive: -2.98%
O=C(CSc1nccn1Cc1ccc(F)cc1)Nc1nc2ccccc2s1	inactive: -0.904%
Cc1cccc(CC(=O)N2CC(=O)Nc3ccc(Br)cc3C2c2ccc(F)cc2)c1 (centres undefined)	inactive: 5.04%
CCc1cccc(-n2nnc(-c3nsc(NC(=O)c4cccc(OC)c4)n3)c2C)c1	inactive: -4.5%

Structure (SMILES)	activity change, negative = inhibition
O=C(Cn1ncc2c3ccccc3n(Cc3ccccc3F)c2c1=O)NCc1ccccc1Cl	inactive: -5.35%
Cc1cc2c(cc1S(=O)(=O)Nc1cccc(C#N)c1)OCC(=O)N2	inactive: -4.22%
N#Cc1ccc(-c2cccs2)nc1SCc1ccc(Br)cc1	inactive: 3.97%
COc1ccc(-n2nc(C(=O)N3CCCCC3C)c3c4ccccc4n(C)c3c2=O)cc1Cl (centres undefined)	inactive: 4.47%
Cc1coc2c(C)c3oc(=O)c(CCC(=O)NCCc4ccccc4F)c(C)c3cc12	inactive: 2.45%
CCOC(=O)c1ccc(NC(=O)Cn2c(=O)cc(C)c3c(C)nn(-c4ccc(CC)cc4)c32)cc1	inactive: -10.2%
COc1cccc(C(=O)Nc2ccccc2C(=O)OCc2cc(=O)n3c4c(sc3n2)CCCC4)c1	inactive: 0%
COc1ccc(CNC(=O)CN(C)S(=O)(=O)c2ccc3nc(C)sc3c2)cc1	inactive: -2.3%
COc1cccc(/C=C/c2nc(C#N)c(N3CCC(C(N)=O)CC3)o2)c1	inactive: -1.18%
COc1ccc(Br)cc1S(=O)(=O)Nc1cc(-c2cn3ccccc3n2)ccc1C	inactive: -2.57%
Cc1ccc(C2C=C(c3ccccc3)Nc3nc(NS(=O)(=O)c4ccccc4)nn32)cc1 (centres undefined)	inactive: 1.05%
CCOc1ccc(CCNC(=O)c2cn(-c3ccc(OC)cc3)c(=O)c3ccccc23)cc1OCC	inactive: 10.4%
CN(Cc1ccccc1)C(=O)c1ccc(CSc2nc3cccnc3n2Cc2ccccc2F)cc1	inactive: 0.881%
COc1ccc(NC(=O)Cn2c(=O)n(CCC(=O)NCC3CCCO3)c(=O)c3cc(OC)c(OC)cc32)cc1 (centres undefined)	inactive: 2.17%
COc1ccccc1Nc1sc(C(=O)c2ccc(F)cc2)c(N)c1S(=O)(=O)c1ccc(C)cc1	inactive: 0.67%
COc1ccc(-c2noc(-c3ccc(N4CCCC4)c([N+](=O)[O-])c3)n2)cc1OC	inactive: 0.462%
CCc1ccc(-n2nc(C)c3c(C(=O)N4CCN(c5ccccc5)CC4)cc(C)nc32)cc1	inactive: -5.27%
CCOc1ccc(CNC(=O)C2CCCN(c3nnc(C)c4c(C)n(-c5ccccc5)nc34)C2)cc1 (centres undefined)	inactive: 1.81%
CCOc1cc(C2NC(=O)c3c(sc4c3CCN(C)C4)N2)ccc1OC(=O)c1ccc(Br)cc1 (centres undefined)	inactive: 5.17%
